What was measured:
[1] = system: severely remodeled pulmonary arterial lesions and other organs of SU5416/hypoxia/normoxia-exposed rats; assay type: in vivo, rat; details: FAM-labeled peptide 1 mg/300 g body weight via tail vein, tissues collected 2 hours after injection, FIGS. 5-10
Experimental: FIGS. 5-13 depict varying distributions of CAR and the control peptide CARM in tissues from the late stage SU5146/hypoxia/normoxia exposed rats. Tissue samples were collected 2 hours after injections of FAM-labeled CAR or CARM peptide via tail vein (1 mg/300 g body weight). Low power magnification of lung tissues (FIG. 5), high power magnification of severely remodeled (Grade 4) pulmonary arterial lesions (FIGS. 6-10), low power and high power magnification photos of liver (FIG. 11), spleen (FIG. 12), kidney (FIG. 13). Animal Model Adult male Sprague-Dawley rats weighing approximately 200 g are injected subcutaneously with SU5416 (20 mg/kg; SUGEN Inc), which is suspended in carboxymethylcellulose (0.5% [wt/vol] carboxymethylcellulose sodium, 0.9% [wt/vol] NaCl, 0.4% [vol/vol] polysorbate, 0.9% [vol/vol] benzyl alcohol in deionized water). The rats are then exposed to chronic hypoxia in a hypobaric chamber (10% 02) for 3 weeks and are returned to normoxia (21% 02) for an additional 2 to 10 weeks. Organs (lung, heart, liver, spleen, and kidney) are collected after blood is flushed with 30 ml phosphate buffered saline (PBS). Lungs are inflated via trachea with 10% formalin at a constant pressure of 20 cm H2O. […] Sections were lightly counterstained with hematoxylin, and analyzed using light microscopically (FIGS. 5-13).

[2] = system: catheterized SU5416/hypoxia/normoxia-exposed rats with PAH; test: Blood pressure tracing, fasudil with and without CAR; assay type: in vivo, rat
Experimental: Animal Model Adult male Sprague-Dawley rats weighing approximately 200 g are injected subcutaneously with SU5416 (20 mg/kg; SUGEN Inc), which is suspended in carboxymethylcellulose (0.5% [wt/vol] carboxymethylcellulose sodium, 0.9% [wt/vol] NaCl, 0.4% [vol/vol] polysorbate, 0.9% [vol/vol] benzyl alcohol in deionized water). The rats are then exposed to chronic hypoxia in a hypobaric chamber (10% 02) for 3 weeks and are returned to normoxia (21% 02) for an additional 2 to 10 weeks.
Rats are anesthetized with intramuscular pentobarbital sodium (30 mg/kg). The rats are placed on controlled heating pads. Hemodynamic measurements are performed in anesthetized animals under normoxic conditions. Polyvinyl catheters (PV-1, internal diameter: 0.28 mm) are inserted into the right jugular vein for measurement of right ventricular systolic pressure (RVSP) and into the left jugular vein for drug administration. A microtip P-V catheter (SPR-838, Millar Instruments) is inserted into the right carotid artery and advanced into the left ventrical (LV). The signals are continuously recorded by MPVS-300 system with PowerLab/4SP, A/D converter (AD Instruments), and a personal computer. RVSP, heart rate, maximal left ventriclar systolic pressure, left ventricular end-diastolic pressure (LVEDP), mean arterial pressure (MAP), cardiac output, and stroke volume are measured. If the heart rate falls below 300 beats/min, the measurements are excluded from analysis. At the end of each hemodynamic study, the rat is sacrificed by an overdose of pentobarbital sodium, and organs are removed for various measurements and analyses.
After baseline hemodynamic measurements, a simple mixture of CAR (1 mg/300 g rat), or control peptide CARM, and fasudil (0.1, 0.3, 1, or 3 mg/kg) or each agent alone is injected intravenously, and all hemodynamic parameters are continuously monitored.

[3] = acute iv, CAR 1 mg/300 g rat + fasudil, compared to fasudil alone, FIGS. 18-19
[4] = fasudil 1 to 10 mg/kg with and without CAR, FIG. 21

CARSKNKDC
Detection of peptide in severely remodeled arteries from lung tissue [1]: detected in high intensity in all layers of severely remodeled arteries from lung tissue
Effect of co-administered CAR on right ventricular systolic pressure (RVSP) lowering by fasudil [2, 3]: enhanced the blood pressure lowering effect of fasudil on RVSP
Effect of co-administered CAR with fasudil on left ventricular systolic pressure (LVSP) [2, 3]: only a minor reduction in LVSP
Pulmonary pressure (RVSP), alternative analysis comparing RVSP to systolic aortic pressure (SAP) [2, 4]: selective decrease in pulmonary pressure as measured in the RVSP is present
Systemic effect (SAP), alternative analysis comparing RVSP to systolic aortic pressure [2, 4]: no increased CAR effect systemically

Reference: patent publication US10039838B2, “Car peptide for homing, diagnosis and targeted therapy for pulmonary and fibrotic disorders” (Vascular BioSciences, priority 2010, dated 2018)
